In patent US10463716B2 (UNIVERSITY OF MARYLAND, BALTIMORE, priority 2014, dated 2019):

B1: Fc-ELA-32: fusion protein: htPA secretion signal, human immunoglobulin Fc domain, hinge/linker, ELA-32; produced in HEK293 cells (protein)
chain: MDAMKRGLCCVLLLCGAVFVSPSQDI[human IgG1 Fc with changes not written out]GGGGSGGGGSGGGGSQRPVNLTMRRKLRKHNCLQRRCMPLHSRVPFP
modifications: Synthetic Fc-ELA-32 or htPA-SS-Fc-ELA-32
notes: fusion protein: htPA secretion signal, human immunoglobulin Fc domain, hinge/linker, ELA-32; produced in HEK293 cells
B2: Fc-ELA-21: fusion protein: htPA secretion signal, human immunoglobulin Fc domain, hinge/linker, ELA-21 (protein)
chain: MDAMKRGLCCVLLLCGAVFVSPSQDI[human IgG1 Fc with changes not written out]GGGGSGGGGSGGGGSLRKHNCLQRRCMPLHSRVPFP
modifications: Synthetic Fc-ELA-21 or htPA-SS-Fc-ELA-21

What was measured:
EGFP-tagged APJ receptor = biological target: T1, EGFP-tagged APJ receptor (Homo sapiens, UniProt P35414); assay: Internalization assay, HEK293 cells expressing EGFP-tagged APJ receptor; format: cell-based; conditions: 0.2 μM, 30 min, HEK293 over-expressing APJ-EGFP
T1 construct: expressed in transfected cells
T1 sequence (P35414 1-380): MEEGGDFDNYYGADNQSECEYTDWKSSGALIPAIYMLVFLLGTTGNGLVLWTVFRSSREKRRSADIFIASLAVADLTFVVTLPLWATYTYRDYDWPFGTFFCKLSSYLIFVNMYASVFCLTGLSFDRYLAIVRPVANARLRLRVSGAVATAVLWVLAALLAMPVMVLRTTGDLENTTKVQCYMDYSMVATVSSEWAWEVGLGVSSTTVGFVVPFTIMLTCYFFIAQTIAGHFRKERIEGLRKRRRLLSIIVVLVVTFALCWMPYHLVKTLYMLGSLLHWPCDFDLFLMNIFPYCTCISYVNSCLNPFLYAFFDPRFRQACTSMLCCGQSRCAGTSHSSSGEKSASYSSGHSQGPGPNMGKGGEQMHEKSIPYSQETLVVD
Method: Confocal imaging was performed with a Zeiss LSM510 microscope.
(§1) The respective vector was introduced into HEK293 cells to produce the fusion protein in supernatant for purification by Protein A affinity chromatography and the resulting fusion protein was used for functional studied in cells and in animals. […] Next, Fc-32 was administered into a mouse subcutaneously and collected blood for serum level measurement by Western blotting.

[1] = Serum level / pharmacokinetics of Fc fusion proteins; format: in vivo; conditions: mouse, subcutaneous
Method: as §1, with “blotting. In FIG. 18, Fc-ELA-32 acutely elevated 2 hours after subcutaneous administration and lasted up to 72 hours at a level above 0.5 μg/ml.” for “blotting.”

Sprague-Dawley rats = assay: MI-induced heart failure by coronary artery ligation in rats, Fc-ELA-32; format: in vivo, rat
Method: It was studied whether Fc-ELA fusion proteins have cardioprotective activities in heart failure caused by myocardial infarction (MI) in rats. MI was inflicted by standard left anterior descending coronary artery ligation (CAL) in Sprague-Dawley rats (8-weeks old, male). One week post-operation, recombined Fc-ELA-32 protein was administrated by subcutaneous injection at the dosage of 300 μg/kg bodyweight/day for two weeks. Phosphate-buffered saline (PBS) was used as the control. One week after the administration or at the end of the four weeks of MI, cardiac performance was evaluated by a pressure transducer which was inserted retrograde from the right carotid artery to the left ventricle cavity. Heart tissue samples were taken and fixed with 4% paraformaldehyde for 24 hours and then embedded in paraffin and sectioned for histopathologic examination.
Apoptosis was assessed by terminal deoxynucleotidyl transferase-mediated dUTP nick end labeling (TUNEL) and caspase-3 activity assay. The TUNEL staining and methyl green counterstaining were performed using TdT-FragEL apoptosis detection kits (Calbiochem, San Diego, Calif.). TUNEL-positive nuclei in the LV free wall were counted within a 4-mm^2 square of field. The number was averaged over four randomly selected fields per section and five sections per heart.
Masson staining which specifically stains collagens in blue was conducted on tissue sections of the infarcted heart area. Collagen volume fraction (CVF) is calculated by dividing of the blue stained area, which scattered between the surviving myocytes and around the blood vessels by the total area. […]
Terminal deoxynucleotidyl transferase dUTP nick end labeling (TUNEL) is a method for detecting DNA fragmentation by labeling the terminal end of nucleic acids and is well used for measuring cell apoptosis. […] As a result, apoptotic cells were labeled by green fluorescence.

| Molecule | APJ-EGFP translocation / endocytosis (EGFP-tagged APJ receptor) | time serum level lasted above 0.5 μg/ml [1] | serum level ([1]; up to 72 hours, Western blotting) | LVEDP (Sprague-Dawley rats; MI rats, 300 μg/kg bodyweight/day subcutaneous for two weeks) | decrease in collagen volume fraction (CVF) (Sprague-Dawley rats; infarcted heart, Masson staining, vs control heart) [%] | cardiomyocytes stained by PCNA (proliferation) (Sprague-Dawley rats; near the infarct region, vs control) |
| --- | --- | --- | --- | --- | --- | --- |
| B1 | caused translocation or endocytosis of the receptor into cytoplasm | up to 72 hours | above 0.5 μg/ml | decreased | 50 | more cardiomyocytes |
| B2 | caused translocation or endocytosis of the receptor into cytoplasm | – | – | – | – | – |
